# Reference: PubChem BioAssay AID463173 (ICCB-Longwood Screening Facility, Harvard Medical School, 2010)
# Screen size: about 52,000 compounds; about 4,300 (8.3%) were called active. Rule as the data show it: active = survival mostly below about 52% (no sharp cut-off); inactive = mostly above about 56%. Some of the results follow.
# Test system: DeltatarO mutant
# Experiment: S. aureus survival, RN4220 and DeltatarO strains – OD600, teichoic acid synthesis inhibitors, primary screen (AID 463173)
# Details: S. aureus RN4220 wild type/DeltatarO growth, OD600, 18 h, active compounds read low, screened at 18.75 µg/mL (by protocol)
row,SMILES,survival
1,COc1ccc(-n2nnc(-c3nsc(NC(=O)c4cccc(C)c4)n3)c2C)cc1OC,inactive: 88%
2,COc1ccc(-c2[nH]c3c(c2-c2c(-n4cccc4)n(C)c(=O)[nH]c2=O)c(=O)[nH]c(=O)n3C)cc1F,inactive: 63%
3,Cc1ccc(S(=O)(=O)CC(=O)Nc2nc3c(C)cccc3s2)cc1,inactive: 88%
4,Cc1ccc(-c2c3c(=O)n(C)c(=O)n(C)c3c3cnc4ccccc4n23)cc1,inactive: 128%
5,CSc1ccc(/C=C/c2nc3ccccc3n2S(=O)(=O)c2ccc(Br)cc2)cc1,inactive: 68%
6,Cc1ccc(N2CCN(Cc3nnc(-c4ccccc4F)o3)CC2)c(C)c1,active: 22%
7,CN(C)N1C(=O)CC(n2cnc3ccccc32)C1=O (centres undefined),inactive: 75%
8,Cc1cccn2c(=O)c3cc(C#N)c(=O)n(-c4nnc(SCc5ccc(F)cc5)s4)c3nc12,inactive: 109%
9,COc1ccccc1Nc1ncc2c(n1)CCN(Cc1cc(F)cc(F)c1)C2,inactive: 87%
10,Cc1cc(C)c(NC(=O)CSc2nc(=O)n(Cc3cccnc3)c3c2CCC3)c(C)c1,inactive: 104%
11,COc1cccc(NC(=O)Cn2nnc(C(=O)NCc3ccc4c(c3)OCO4)c2N)c1,inactive: 102%
12,CCOCCCNC(=O)c1cn(CC(C)C)c(=O)c2c1c1ccccc1n2C,inactive: 87%
13,Cn1c(SCC(=O)Nc2nc3ccccc3s2)ncc(C(=O)Nc2ccc(Cl)cc2)c1=O,inactive: 78%
14,CSc1ncc(Cl)c(C(=O)N(C)c2ccccc2)n1,inactive: 110%
15,CCN1CCN(c2ncc3c(n2)CCN(Cc2cccc(F)c2F)C3)CC1,inactive: 84%
16,COC(=O)c1ccccc1NC(=O)c1nn(C)c2c1COc1ccccc1-2,inactive: 75%
17,Cc1ccccc1N1C(S)=C(C#N)C(=O)NC1c1ccco1 (centres undefined),inactive: 67%
18,O=c1[nH]nc(SC(F)(F)C(F)(F)C(F)(F)F)c(=O)[nH]1,active: 37%
19,CCc1nn(CC(=O)NCCc2ccc(OC)c(OC)c2)c(=O)c2cc3occc3n12,inactive: 131%
20,CCOC(=O)c1ccc(NC(=O)CSc2nc(-c3ccc(F)cc3)cc(C(F)(F)F)c2C#N)cc1,inactive: 71%
21,CCOc1ccc(NC(=O)C2=C(C)C(=O)OC23CCC(C)CC3)cc1 (centres undefined),inactive: 66%
22,COc1ccccc1NC(=O)c1ccc(-c2nc(COc3ccc(C)cc3)c(C)o2)cc1,inactive: 83%
23,Cc1ccc(NC(=O)Nc2c(C)n(C)n(-c3ccccc3)c2=O)c(Cl)c1,inactive: 87%
24,O=C(CSc1ncc2c(n1)-c1cc(Cl)ccc1N(Cc1ccccc1)S2(=O)=O)NCCc1ccccc1,inactive: 89%
